The record followed here is ChEMBL document CHEMBL4888484, “Replenishing the malaria drug discovery pipeline: Screening and hit evaluation of the MMV Hit Generation Library 1 (HGL1) against asexual blood stage Plasmodium falciparum ,using a nano luciferase reporter read-out” (2022).

SMILES strings stand for the structures. Where “and” joins values, the source holds several entries; their conditions need not be identical. Equal values may be shown once. About 540 (0.36%) of roughly 150,000 compounds showed an effect of 50% or more. The list shows a part of the results.

This experiment concerns Plasmodium falciparum. Description: Primary screen in NF54 nanoGlo assay, in single point, at 2uM, 72h; a lower Z score goes with more inhibition. In kind it is functional, Erythrocyte. The conditions noted are these: timepoint 72 hour.

Consider `CCNc1nc(C)cc(Nc2ccc(NS(=O)(=O)c3c(C)noc3C)cc2)n1`, for which the “% Inhibition” value is given as 86% and the Z score was -8.65.
The like results for `CC[C@@H](NC(=O)N1CCC2(CCCO2)CC1)c1ccccc1` were, in that order, 7% and -0.9.
The matching figures for `Cc1nc(N2C[C@H](O)[C@@H](N(C)C)C2)nc2c1CCCC2`: -10% and 1.37.
Consider `CN1CCCN(c2ccc(NC(=O)N3CCC(C4OCCO4)CC3)cc2F)CC1`, for which the “% Inhibition” value is on record as -13% and the Z score is recorded as 2.01.
The matching figures for `CCC[C@H](NC(=O)c1ccc(-c2ccc(OC)nc2)cc1)c1nccn1C`: -10% and 1.3.
The like results for `Nc1[nH]ncc1-c1nnc(Nc2ccc3c(c2)OCO3)o1` were, in that order, 3% and -0.34.
The matching figures for `CN(CC(C)(C)CO)C(=O)c1cc(F)cc(Cl)c1`: -8% and 1.32.
With `O=C(NC1CCCC1)c1cc(S(=O)(=O)N2CCCCC2)ccc1F`, the “% Inhibition” value was -9% and the Z score came to 1.05.
The like results for `CS(=O)(=O)N1C[C@@H]2OCC(=O)N(Cc3ccccc3)[C@@H]2C1` were, in that order, 4% and -0.67.
The matching figures for `CN(Cc1csc(C(C)(C)C)n1)[C@H]1CCS(=O)(=O)C1`: -5% and 0.63.
The like results for `COc1ccc(Cl)cc1-n1nc(C)nc1Cn1nccc1C` were, in that order, -14% and 2.28.
Consider `CCc1nnc(COc2ccc(N3CCCCC3)c(Cl)c2)o1`, for which the “% Inhibition” value came to 8% and the Z score is reported as -1.49.
The matching figures for `Cc1cc(C(=O)Nc2c(C)nn(C)c2C)nc(N(C)C)n1`: 4% and -0.62.
`CCc1noc(CCc2nc(-c3ccccc3)no2)n1`: the “% Inhibition” value is listed as -1% and the Z score was 0.09.
The like results for `COc1ccc(CCC(=O)N2CC[C@H](c3cccnc3)C2)cc1` were, in that order, -1% and 0.17.
The matching figures for `N#Cc1cccc(C(=O)Nc2ccc(-c3cc[nH]n3)cc2)c1`: 35% and -3.95.
The like results for `COc1ccnc(N[C@H]2CCOC[C@@H]2OCc2ccccn2)n1` were, in that order, -20% and 3.23.
For the compound `Cc1ncc(C(=O)Nc2c(-c3cnn(C)c3)nc3n2CCCC3)s1`, the “% Inhibition” value was -12% and the Z score was determined as 1.73.
The matching figures for `COCc1cc(CNC2CC(C)N(C3CC3)C2)no1` (configuration not stated): 30% and -3.85.
The like results for `COC(=O)c1cnn(-c2ccc(C(=O)N3CCN(Cc4ccc5c(c4)OCO5)CC3)cc2)c1N` were, in that order, -12% and 1.9.
Turning to `O=C(NCc1ccccc1OCCO)C1CC12CCc1ccccc12` (configuration not stated), the “% Inhibition” value is given as -14% and the Z score is 1.19.
The matching figures for `Cc1cccn2cc(Cn3ncc(N4CCc5ccccc5C4)cc3=O)nc12`: -5% and 0.65.
The like results for `CC(C)[C@H](CNC(=O)Cc1ccoc1)Cc1ccccc1` were, in that order, 2% and -0.3.
The like results for `Cc1ccc(-c2nnc(-c3cccc4ccccc34)n2-c2ccccc2)cc1` were, in that order, -2% and 0.32.
As for `COc1cccc(-c2cc(C(=O)Nc3ccc(F)cc3)n3nc(-c4ccccc4)cc3n2)c1`, the “% Inhibition” value is reported as -5% and the Z score came to 0.73.
The like results for `C[C@H]1COC2(CCC2)CN1C(=O)c1ccccc1OC1CCC1` were, in that order, 6% and -1.25.
The like results for `O=C(Nc1ccc2nc3n(c(=O)c2c1)CCCC3)NC1CCCC1` were, in that order, 3% and -0.31.
The like results for `CN(C(=O)OC(C)(C)C)[C@H]1CCN(C(=O)c2cccs2)C1` were, in that order, -5% and 0.76.
`O=S(=O)(CCN1CCc2ccccc2C1)Oc1ccc(Br)cc1`: the “% Inhibition” value stood at 2% and the Z score was -0.31.
`Cc1cc2c(c(-c3ccc(Cl)cc3)c1)OC(CNC(=O)C1CCCO1)C2` (configuration not stated): the “% Inhibition” value amounted to 17% and the Z score is recorded as -2.2.
The matching figures for `CC(C)COCCN[C@H]1CCN(C2CC2)C1`: 0% and 0.07.
For `O=C(Nc1nc2c(s1)CN(C(=O)c1cccc(Cl)c1)CC2)NC1CCCC1`, the “% Inhibition” value was -5% and the Z score is given as 0.9.
The matching figures for `COC[C@@H]1CN(C(=O)c2ccccc2OC)C[C@H]1c1nc(C2CC2)no1`: -8% and 1.4.
In the case of `COc1ccc(-c2cc(-c3ccc(Cl)cc3)nc3c(C(=O)Nc4ccccc4)cnn23)cc1`, the “% Inhibition” value is on record as 4% and the Z score is reported as -0.49.
The matching figures for `O=C(NC1Cc2ccccc2C1)N1CCC[C@H](CCO)CC1`: -8% and 0.99.
The like results for `Cc1csc(NC(=O)CN2CCCCCC2)n1` were, in that order, -13% and 1.32.
The like results for `Cc1cccc(NC(=O)OC(C)(C)C)c1C` were, in that order, -7% and 1.12.
`CC[C@H](C)N(Cc1ccccc1)S(=O)(=O)CC1CCCCC1`: the “% Inhibition” value is on record as 1% and the Z score was -0.18.
The like results for `O=C(CCc1ccc(F)cc1)N1CCN(C(=O)CCc2ccc(F)cc2)c2cnccc21` were, in that order, -6% and 0.77.
The matching figures for `CCCC1(CCC)NC(=O)N(CCC(C)(C)O)C1=O`: -10% and 1.61.
Turning to `COCCn1nc(C(=O)N2CCC[C@H]2c2ccc3c(c2)OCCCO3)ccc1=O`, the “% Inhibition” value is reported as 0% and the Z score is reported as 0.01.
The like results for `O=C(CCN1CCN(c2cc(F)cc(F)c2)CC1)NC1CC1` were, in that order, -43% and 5.1.
On to `Cn1cc(C(=O)OCCC#Cc2ccccc2)cn1`, for which the “% Inhibition” value is reported as -12% and the Z score worked out at 2.25.
As for `Cc1cc(C(=O)NC2(C(N)=O)CCOCC2)sc1C`, the “% Inhibition” value was -2% and the Z score came to 0.3.
With `CC(C)(C)OC(=O)N1CCc2n[nH]c(O)c2CC1`, for the setting “2 µM”, the “% Inhibition” value is -4% and -8%; the Z score was 0.58 and 1.09.
As for `COCCN(CC(=O)Nc1cn(C)nc1C)Cc1ccncc1`, the “% Inhibition” value is reported as -2% and the Z score is 0.24.
The matching figures for `O=C1C[C@H](n2ccnc2-c2cnc(-c3ccco3)nc2)CN1Cc1ccccc1`: -6% and 1.1.
The like results for `CCCCCNC(=O)N(C)C1CCC(CO)CC1` (configuration not stated) were, in that order, -14% and 1.4.
Consider `O=C(NCCc1ccc(C(F)(F)F)cn1)O[C@H]1CCOC1`, for which the “% Inhibition” value was -5% and the Z score worked out at 0.93.
The like results for `CCCc1cc(C(=O)N2C[C@H](C(=O)O)[C@@H](c3ccccc3C)C2)[nH]n1` were, in that order, -14% and 1.74.
The matching figures for `C[C@@H]1CN(C(=O)Cc2ccccn2)CC[C@@]1(O)C1CCOCC1`: -4% and 0.86.
On to `c1cc(CN(Cc2ccoc2)C2CCCCC2)on1`, for which the “% Inhibition” value is recorded as -1% and the Z score is recorded as 0.13.
The matching figures for `CC[C@H](NS(C)(=O)=O)c1ccc(C)cc1`: -2% and 0.18.
The like results for `CCc1nnsc1C(=O)NCc1nc2ccccc2s1` were, in that order, -7% and 1.19.
The like results for `COc1ccccc1-c1ccc(C(=O)N(C)CCO)c(N2CCN(c3ccccc3F)CC2)n1` were, in that order, 22% and -2.76.
For the compound `CC(C(=O)NC1(C#N)CCCCC1)N1CCCC(c2ccn[nH]2)C1` (configuration not stated), the “% Inhibition” value was 1% and the Z score was -0.1.
